Assay results: article PMC7819943, “Rice protein-binding microarrays: a tool to detect cis-acting elements near promoter regions in rice”
The list shows a part of the results.

target: T1, OsWOX13 (Oryza sativa, UniProt Q5QMM3 1-267); test: protein-binding microarray (RPBM); PBS, 2% BSA, 51.3 ng/ul salmon testes DNA, 50 uM zinc acetate, 200 nM TF, 25 C, 1 h; high values mean tight binding; details: protein: recombinant; tags: N-terminal polyhistidine and DsRed monomer fusion (pET32a); label: CyDye5-dUTP incorporated in the synthesized complementary strand; 3' TTTTT single-stranded linker to array surface; dsDNA, one strand shown
T1 sequence: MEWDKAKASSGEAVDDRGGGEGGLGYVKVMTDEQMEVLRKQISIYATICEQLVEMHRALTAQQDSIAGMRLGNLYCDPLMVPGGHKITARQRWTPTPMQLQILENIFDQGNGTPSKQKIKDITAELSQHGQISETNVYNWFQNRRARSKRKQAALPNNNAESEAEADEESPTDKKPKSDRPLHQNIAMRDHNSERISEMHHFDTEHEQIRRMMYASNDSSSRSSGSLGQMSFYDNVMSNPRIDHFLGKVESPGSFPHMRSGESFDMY
Method in brief: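 Polyhistidine-tagged DsRed fusions of transcription factors, joined at the N-terminus, were expressed in E. coli BL21-CodonPlus and isolated on Ni–NTA. They were incubated at 200 nM for 1 h at 25 °C on a custom Agilent array, double-stranded and BSA-blocked, in PBS with 2% BSA, salmon testes DNA and 50 µM zinc acetate. The binding signal is per-feature fluorescence intensity (arbitrary units) read on an Axon 4000B scanner after washing.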

Sequence	binding signal
CTTTAATAAATTAGAGGAATTTCTAATAATTCTTAGAAAACGGAGTCACCTAGTGCAG	5060 fluorescence intensity (a.u.)
CTGAGCAAAGATAATTTAAGATCCAAATGTATCCTCACAGCGGAGTCACCTAGTGCAG	3230 fluorescence intensity (a.u.)
AATAAACTAAATTCCCTTAATAGAGAGTTTCCAAAATATGCGGAGTCACCTAGTGCAG	10800 fluorescence intensity (a.u.)
AACCATCATCATTCATCACCAATCATGAGATCCACTCCCCCGGAGTCACCTAGTGCAG	6860 fluorescence intensity (a.u.)
GAACCATCAATCACACAACCAACGATACACAGTATCCCTACGGAGTCACCTAGTGCAG	17800 fluorescence intensity (a.u.)
GGAGAATAATTGAAGAGGGAGCAAACAGATTTGAAGCGGTCGGAGTCACCTAGTGCAG	21000 fluorescence intensity (a.u.)
TGAGAATCAATCAATTAACTTAAATTGCTTCCTATAAAATCGGAGTCACCTAGTGCAG	37700 fluorescence intensity (a.u.)
TTGAGTCTAATTAGTCCATGATTAGCCATAAGTGCTACAGCGGAGTCACCTAGTGCAG	30600 fluorescence intensity (a.u.)
CACGTATAAATTGCACTGTGTACTTAGACATCCATAACGTCGGAGTCACCTAGTGCAG	4920 fluorescence intensity (a.u.)
ACATGTTAATTTTAACATTGACTAATAGTAAGTAGTGAGCCGGAGTCACCTAGTGCAG	25000 fluorescence intensity (a.u.)
CATGCTTAACAGCGTAATTAAGCTTGCATTGCTAATCCTGCGGAGTCACCTAGTGCAG	14000 fluorescence intensity (a.u.)
AGCAGGAGATTGAGCTTAATGAAGATGAACCTGCTTTCTTCGGAGTCACCTAGTGCAG	14400 fluorescence intensity (a.u.)
TGCCAACGTAATAGACAGTACGGTACAGAACATGTCAAATCGGAGTCACCTAGTGCAG	3410 fluorescence intensity (a.u.)
GACCAATTAGTCATTAGTACTCCCAATTTTAAGCTAAAACCGGAGTCACCTAGTGCAG	7130 fluorescence intensity (a.u.)
TAAAATTTCTGCAATTTTGTTTGAGAATTCAAATTTTGTTCGGAGTCACCTAGTGCAG	3310 fluorescence intensity (a.u.)
ATCTTAATTAAATCATTCTACATAAAATCCTCGATCCGACCGGAGTCACCTAGTGCAG	32700 fluorescence intensity (a.u.)
GTTTTGTATGTAATTATTGCTAGTGGATGATGATGTATCACGGAGTCACCTAGTGCAG	5370 fluorescence intensity (a.u.)
ATGTGAAATTACTAACTTACCCTTGCAATATAATCTGGTTCGGAGTCACCTAGTGCAG	3290 fluorescence intensity (a.u.)
AACTCAAGTAATCATGCGTTAATGGTTTTATCGTTTTACGCGGAGTCACCTAGTGCAG	3310 fluorescence intensity (a.u.)
TATGTGGATAATTGCAGTTCATCCACGTATGACAACTGGGCGGAGTCACCTAGTGCAG	4700 fluorescence intensity (a.u.)
ACTATAACTGTCATAATGTTTCAATTAATTTCTCAGCATCCGGAGTCACCTAGTGCAG	20800 fluorescence intensity (a.u.)

Sequence	binding signal
ACCTCTTGCAATTAATAGCTTGACTTTGACTTTGACTTCCCGGAGTCACCTAGTGCAG	7050 fluorescence intensity (a.u.)
TCAAATTATCTTCAATCTGTTGGTTTACCAGGGAAAACCACGGAGTCACCTAGTGCAG	14500 fluorescence intensity (a.u.)
GCATGATCTAGATAATTTATGTGCTACACAATTTGCCTCTCGGAGTCACCTAGTGCAG	22000 fluorescence intensity (a.u.)
CTTTATTATCCAAATTACTTTAATTACAACTCTTCGTTTTCGGAGTCACCTAGTGCAG	10100 fluorescence intensity (a.u.)
TGATTTATTTATGTAATAAATTAAATCATTATATGCCCATCGGAGTCACCTAGTGCAG	5110 fluorescence intensity (a.u.)
ATTAATCATGTGCTAATGGACCGCTCCGTTTTCCGTGCGCCGGAGTCACCTAGTGCAG	9930 fluorescence intensity (a.u.)
TAAAATTTATAATTTATAAATATAATATCGTGCCCATCTTCGGAGTCACCTAGTGCAG	14100 fluorescence intensity (a.u.)
GCCCTCACCATCATCATCATCATCAAGATAGCCAAAATGACGGAGTCACCTAGTGCAG	3300 fluorescence intensity (a.u.)
TGGACACTTAAATAATGATTACTATACGCAATTGACAAGCCGGAGTCACCTAGTGCAG	6040 fluorescence intensity (a.u.)
CCTTATAAATTGCGCACAGATTGGCTCGTGTTCTTCGCACCGGAGTCACCTAGTGCAG	41500 fluorescence intensity (a.u.)
GTGATTAATTTACTGTATTTGAAATATGGCATAAAGAAATCGGAGTCACCTAGTGCAG	28500 fluorescence intensity (a.u.)
CCTAATTAATCCGTCATTAACAAATGTTTACTGTAGCACCCGGAGTCACCTAGTGCAG	44800 fluorescence intensity (a.u.)
AAATAAGATTGATAGAACCGTAACTCTAGAAGGTGAGCTCCGGAGTCACCTAGTGCAG	19100 fluorescence intensity (a.u.)
TTACCATTAAATTAGATCCATTTAAAAGGTCCCCGCTTCACGGAGTCACCTAGTGCAG	10200 fluorescence intensity (a.u.)
CGCCAAATTTAAGTCTTCCTTTACCTACCTTCTCCTTGCTCGGAGTCACCTAGTGCAG	5780 fluorescence intensity (a.u.)
CCACATGATTAATTAAGTTTTAATTATTATAAATTTAAAACGGAGTCACCTAGTGCAG	28600 fluorescence intensity (a.u.)
TCAGATTACTGTGATAGAACCAATTCAATTCCGTTTATCTCGGAGTCACCTAGTGCAG	8910 fluorescence intensity (a.u.)
TGGGATCCAATCATCTTTCCATTTGGTGGGCCAAAGTAGCCGGAGTCACCTAGTGCAG	9950 fluorescence intensity (a.u.)
CTGTGAAATTAAAGGTCCAATTAGGCCCAACAGTGCAGCACGGAGTCACCTAGTGCAG	7750 fluorescence intensity (a.u.)
CCTGCTTAATTATTGCCTAGGATGCTCTGTCATCCTAATTCGGAGTCACCTAGTGCAG	8140 fluorescence intensity (a.u.)
TACATAAGTGACGCATGATTTTCTAGAACAGTTTCTATAACGGAGTCACCTAGTGCAG	3180 fluorescence intensity (a.u.)
